Compound in this assay: Cc1cc(ccc1-c1ccccc1)C(=O)N1CCCN(CC1)C(=O)CCl [compound 10]
As to the kind of experiment: probe-labelled cysteine peptide fold change vs DMSO (competition) (log2 fold change); higher = less target engagement (more negative = stronger competition). The conditions noted are these: THP-1, incubation time: 4 h.

Experimental findings from the supplement of paper PMC12067093, “Discovery and optimisation of a covalent ligand for TRIM25 and its application to targeted protein ubiquitination” (Chemical Science, 2025) are described below.

The full data set covers some 21,000 targets. This sample favours those with the largest changes.
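Further: competitive profiling in live THP-1 cells: cysteine peptides tagged with an iodoacetamide desthiobiotin (IA-DTB) probe, intensity after compound treatment relative to DMSO-treated cells.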

Chain of UniProt P40939 (P40939 whole entry, looked up): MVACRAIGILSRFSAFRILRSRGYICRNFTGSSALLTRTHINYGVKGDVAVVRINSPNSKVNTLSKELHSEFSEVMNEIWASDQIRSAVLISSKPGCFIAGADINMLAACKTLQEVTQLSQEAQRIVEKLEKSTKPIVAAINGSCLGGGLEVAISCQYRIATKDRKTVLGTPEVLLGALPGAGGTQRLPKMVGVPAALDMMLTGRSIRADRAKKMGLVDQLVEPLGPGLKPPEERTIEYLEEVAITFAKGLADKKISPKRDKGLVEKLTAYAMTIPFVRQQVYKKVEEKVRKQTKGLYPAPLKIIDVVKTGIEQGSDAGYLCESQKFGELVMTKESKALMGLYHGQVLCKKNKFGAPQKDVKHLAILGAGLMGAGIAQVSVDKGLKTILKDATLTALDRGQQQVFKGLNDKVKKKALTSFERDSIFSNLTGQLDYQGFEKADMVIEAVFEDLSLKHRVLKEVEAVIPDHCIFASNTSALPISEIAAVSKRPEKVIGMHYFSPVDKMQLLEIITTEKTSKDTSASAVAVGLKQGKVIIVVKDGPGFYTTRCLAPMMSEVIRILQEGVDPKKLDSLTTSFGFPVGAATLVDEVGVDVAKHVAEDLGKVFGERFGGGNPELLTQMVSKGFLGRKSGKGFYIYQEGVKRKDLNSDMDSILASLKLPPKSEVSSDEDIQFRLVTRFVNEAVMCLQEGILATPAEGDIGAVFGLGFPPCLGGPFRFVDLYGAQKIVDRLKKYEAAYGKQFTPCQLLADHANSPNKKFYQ
Chain of UniProt P00505 (P00505 whole entry, looked up): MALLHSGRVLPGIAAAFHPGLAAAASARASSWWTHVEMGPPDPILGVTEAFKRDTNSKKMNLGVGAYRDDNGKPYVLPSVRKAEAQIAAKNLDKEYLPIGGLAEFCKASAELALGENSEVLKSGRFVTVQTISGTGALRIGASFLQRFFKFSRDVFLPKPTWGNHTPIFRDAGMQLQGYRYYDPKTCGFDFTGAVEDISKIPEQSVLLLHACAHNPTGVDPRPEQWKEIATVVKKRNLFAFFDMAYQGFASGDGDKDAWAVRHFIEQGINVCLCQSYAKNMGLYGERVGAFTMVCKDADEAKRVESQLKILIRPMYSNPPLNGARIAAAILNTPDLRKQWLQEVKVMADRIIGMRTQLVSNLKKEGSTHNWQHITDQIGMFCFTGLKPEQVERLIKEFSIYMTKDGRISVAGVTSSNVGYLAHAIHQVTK
Chain of UniProt Q9BX10 (Q9BX10 whole entry, looked up): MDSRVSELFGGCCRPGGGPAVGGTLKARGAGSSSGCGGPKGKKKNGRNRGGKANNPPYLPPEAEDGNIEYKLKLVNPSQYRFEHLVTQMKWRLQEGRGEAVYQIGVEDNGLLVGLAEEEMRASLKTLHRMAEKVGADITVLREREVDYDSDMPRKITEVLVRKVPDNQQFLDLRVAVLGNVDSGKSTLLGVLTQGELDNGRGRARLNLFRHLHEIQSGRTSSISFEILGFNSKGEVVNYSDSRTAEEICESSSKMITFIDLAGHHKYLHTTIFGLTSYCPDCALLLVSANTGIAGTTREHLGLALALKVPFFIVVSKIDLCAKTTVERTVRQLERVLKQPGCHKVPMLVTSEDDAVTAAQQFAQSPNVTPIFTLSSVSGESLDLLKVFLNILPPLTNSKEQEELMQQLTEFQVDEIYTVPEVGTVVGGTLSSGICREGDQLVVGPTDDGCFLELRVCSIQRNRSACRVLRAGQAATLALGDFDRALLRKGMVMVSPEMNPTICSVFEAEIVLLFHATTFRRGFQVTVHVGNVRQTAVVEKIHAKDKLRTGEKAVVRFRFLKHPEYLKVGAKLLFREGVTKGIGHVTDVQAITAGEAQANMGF
Chain of UniProt O75367 (O75367 whole entry, looked up): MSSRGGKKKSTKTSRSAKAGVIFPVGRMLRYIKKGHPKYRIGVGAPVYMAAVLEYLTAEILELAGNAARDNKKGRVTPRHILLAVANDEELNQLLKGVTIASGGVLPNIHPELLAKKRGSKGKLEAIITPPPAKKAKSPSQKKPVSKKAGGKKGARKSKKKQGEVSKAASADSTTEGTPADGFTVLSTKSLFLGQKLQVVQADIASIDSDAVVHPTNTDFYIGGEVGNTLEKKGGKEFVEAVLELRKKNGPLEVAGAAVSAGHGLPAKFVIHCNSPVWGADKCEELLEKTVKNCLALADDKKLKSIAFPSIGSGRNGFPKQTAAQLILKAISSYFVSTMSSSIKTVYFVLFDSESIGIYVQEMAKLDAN
Chain of UniProt P36969 (P36969 whole entry, looked up): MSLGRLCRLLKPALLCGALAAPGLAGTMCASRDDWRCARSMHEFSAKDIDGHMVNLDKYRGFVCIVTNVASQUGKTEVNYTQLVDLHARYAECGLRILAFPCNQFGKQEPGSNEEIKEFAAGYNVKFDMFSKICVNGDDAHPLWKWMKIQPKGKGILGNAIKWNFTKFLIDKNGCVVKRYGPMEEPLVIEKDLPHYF

Turning to “FMC1_Q96HJ9-2_256_VCEVCSAYLGLHDNDR<|>LUC7L_Q9NQ29_190_VCEVCSAYLGLHDNDR (UniProt Q9NQ29+Q96HJ9)”, the “probe-labelled cysteine peptide fold change” value by setting is: (10 µM) 0.16; (50 µM) -0.243.

Turning to “HADHA_P40939_97+110_PGCFIAGADINMLAACK (UniProt P40939)”, the “probe-labelled cysteine peptide fold change” value is 0.00312 (10 µM) and -0.0502 (50 µM).

“GPX4_P36969_102_ILAFPCNQFGK (UniProt P36969)”: the “probe-labelled cysteine peptide fold change” value runs as follows: (10 µM) 0.649; (50 µM) 0.575.

As for “H2AFY_O75367_276+286_FVIHCNSPVWGADKCEELLEK (UniProt O75367)”, the “probe-labelled cysteine peptide fold change” value reads like this: (10 µM) -0.119; (50 µM) -0.319.

As for “GOT2_P00505_382_EGSTHNWQHITDQIGMFCFTGLKPEQVER (UniProt P00505)”, the “probe-labelled cysteine peptide fold change” value reads like this: (10 µM) 0.125; (50 µM) 0.0313.

Regarding “GTPBP2_Q9BX10_249_TAEEICESSSK (UniProt Q9BX10)”, the “probe-labelled cysteine peptide fold change” value was -0.0237 (10 µM) and 0.126 (50 µM).
